Reference: the supplement of paper PMC8728848
The list shows a part of the results.

What was measured:
Test in all cases: glycan array binding signal (z-score within array); higher = stronger binding
Conditions in all cases: glycan notation: IUPAC condensed, linker removed
[1] = target: Gal(b1-4)GalNAc(b1-3)[Fuc(a1-2)]Gal(b1-4)GlcNAc
Procedure, shortened: (§1)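 Arrays were curated from the Consortium for Functional Glycomics database, 3228 in total, and kept only where the protein sequence was available. Binding is expressed as a within-array Z-score. This score was averaged across arrays of the same protein sequence at different concentrations or buffers and across linkers, and negative values can be read as non-binding.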

Gal(b1-4)Glc = target: Gal(b1-4)Glc
Procedure, shortened: as §1

Gal(b1-4)Glc6S = target: Gal(b1-4)Glc6S
Procedure, shortened: as §1

Gal(b1-4)GlcNAc = target: Gal(b1-4)GlcNAc
Procedure, shortened: as §1

[2] = target: Gal(b1-4)GlcNAc(a1-6)Gal(b1-4)GlcNAc
Procedure, shortened: as §1

Gal(b1-4)GlcNAc(b1-2)Man = target: Gal(b1-4)GlcNAc(b1-2)Man
Procedure, shortened: as §1

[3] = target: Gal(b1-4)GlcNAc(b1-2)Man(a1-3)Man(b1-4)GlcNAc(b1-4)GlcNAc
Procedure, shortened: as §1

[4] = target: Gal(b1-4)GlcNAc(b1-2)Man(a1-3)[Gal(b1-4)GlcNAc(b1-2)Man(a1-6)]Man(b1-4)GlcNAc(b1-4)GlcNAc
Procedure, shortened: as §1

[5] = target: Gal(b1-4)GlcNAc(b1-2)Man(a1-3)[Gal(b1-4)GlcNAc(b1-2)Man(a1-6)]Man(b1-4)GlcNAc(b1-4)[Fuc(a1-6)]GlcNAc
Procedure, shortened: as §1

[6] = target: Gal(b1-4)GlcNAc(b1-2)Man(a1-3)[Gal(b1-4)GlcNAc(b1-2)Man(a1-6)][Gal(b1-4)GlcNAc(b1-4)]Man(b1-4)GlcNAc(b1-4)[Fuc(a1-6)]GlcNAc
Procedure, shortened: as §1

[7] = target: Gal(b1-4)GlcNAc(b1-2)Man(a1-3)[Gal(b1-4)GlcNAc(b1-2)Man(a1-6)][GlcNAc(b1-4)]Man(b1-4)GlcNAc(b1-4)[Fuc(a1-6)]GlcNAc
Procedure, shortened: as §1

[8] = target: Gal(b1-4)GlcNAc(b1-2)Man(a1-3)[GlcNAc(b1-2)Man(a1-6)]Man(b1-4)GlcNAc(b1-4)GlcNAc
Procedure, shortened: as §1

[9] = target: Gal(b1-4)GlcNAc(b1-2)Man(a1-3)[GlcNAc(b1-4)][Gal(b1-4)GlcNAc(b1-2)Man(a1-6)]Man(b1-4)GlcNAc(b1-4)GlcNAc
Procedure, shortened: as §1

[10] = target: Gal(b1-4)GlcNAc(b1-2)Man(a1-3)[Man(a1-6)]Man(b1-4)GlcNAc(b1-4)GlcNAc
Procedure, shortened: as §1

[11] = target: Gal(b1-4)GlcNAc(b1-2)Man(a1-6)Man(b1-4)GlcNAc(b1-4)GlcNAc
Procedure, shortened: as §1

[12] = target: Gal(b1-4)GlcNAc(b1-2)Man(a1-6)[GlcNAc(b1-2)Man(a1-3)]Man(b1-4)GlcNAc(b1-4)GlcNAc
Procedure, shortened: as §1

[13] = target: Gal(b1-4)GlcNAc(b1-2)Man(a1-6)[Man(a1-3)]Man(b1-4)GlcNAc(b1-4)GlcNAc
Procedure, shortened: as §1

[14] = target: Gal(b1-4)GlcNAc(b1-2)[Gal(b1-4)GlcNAc(b1-4)]Man(a1-3)[Gal(b1-4)GlcNAc(b1-2)Man(a1-6)]Man(b1-4)GlcNAc(b1-4)GlcNAc
Procedure, shortened: as §1

[15] = target: Gal(b1-4)GlcNAc(b1-2)[Gal(b1-4)GlcNAc(b1-4)]Man(a1-3)[Gal(b1-4)GlcNAc(b1-2)[Gal(b1-4)GlcNAc(b1-6)]Man(a1-6)]Man(b1-4)GlcNAc(b1-4)GlcNAc
Procedure, shortened: as §1

[16] = target: Gal(b1-4)GlcNAc(b1-2)[Gal(b1-4)GlcNAc(b1-4)]Man(a1-3)[GlcNAc(b1-4)][Gal(b1-4)GlcNAc(b1-2)Man(a1-6)]Man(b1-4)GlcNAc(b1-4)GlcNAc
Procedure, shortened: as §1

[17] = target: Gal(b1-4)GlcNAc(b1-2)[Gal(b1-4)GlcNAc(b1-4)]Man(a1-3)[GlcNAc(b1-4)][Gal(b1-4)GlcNAc(b1-2)[Gal(b1-4)GlcNAc(b1-6)]Man(a1-6)]Man(b1-4)GlcNAc(b1-4)GlcNAc
Procedure, shortened: as §1

[18] = target: Gal(b1-4)GlcNAc(b1-2)[Gal(b1-4)GlcNAc(b1-6)]Man(a1-6)[Gal(b1-4)GlcNAc(b1-2)Man(a1-3)]Man(b1-4)GlcNAc(b1-4)GlcNAc
Procedure, shortened: as §1

B1: CpGal16 (Clavelina picta) (protein)
chain: MAKMITNYVGKRIECIMVATDMMSTVFSLASATGDLPFYINFRQRENSIVMNTRVHGKWQYEKSQSSGGMNFYEPFRLVVEVRPSVFKVTVSTMGEEDGITFNLQYSQITIKPDEIVAMHLGYCNLRSELLVTDL
glycan array binding signal (z-score) [1]: -0.346
glycan array binding signal (z-score) (Gal(b1-4)Glc): -0.209
glycan array binding signal (z-score) (Gal(b1-4)Glc6S): 0.941
glycan array binding signal (z-score) (Gal(b1-4)GlcNAc): -0.368
glycan array binding signal (z-score) [2]: -0.346
glycan array binding signal (z-score) (Gal(b1-4)GlcNAc(b1-2)Man): -0.299
glycan array binding signal (z-score) [3]: -0.257
glycan array binding signal (z-score) [4]: -0.143
glycan array binding signal (z-score) [5]: -0.202
glycan array binding signal (z-score) [6]: -0.147
glycan array binding signal (z-score) [7]: -0.043
glycan array binding signal (z-score) [8]: -0.159
glycan array binding signal (z-score) [9]: -0.358
glycan array binding signal (z-score) [10]: -0.273
glycan array binding signal (z-score) [11]: -0.232
glycan array binding signal (z-score) [12]: -0.389
glycan array binding signal (z-score) [13]: -0.432
glycan array binding signal (z-score) [14]: 0.283
glycan array binding signal (z-score) [15]: 0.087
glycan array binding signal (z-score) [16]: -0.179
glycan array binding signal (z-score) [17]: -0.231
glycan array binding signal (z-score) [18]: -0.141
